Article PMC12906832, “Transgenic Tobacco Plants Expressing Synthetic Peptides: A Functional and Structural Analysis for Pathogen Resistance” (Plant Biotechnology Journal, 2025)

Tested on: 5:4:3 POPC/POPE/STG vesicles
Experiment: Calcein dye leakage assay, plant membrane mimic
Details: compared to KG18 and VR18 (Figure S12B)
Method: […] LPS and peptides were dissolved in 10mM phosphate buffer (pH 7.4), filtered and degassed. LPS was titrated with increasing concentrations of the peptide solution, in a low-volume disposable cuvette.
The viscosity and refractive index of 10 mM phosphate buffer (pH 7.4) was set at 0.8924 and 1.330, respectively for data analysis. Autocorrelation data was used to generate the particle size distributions from the non-negative least squares fit algorithm provided in the instrument. Similar experiments were performed using LPS bicelles. DLS was performed in triplicates and three independent experimental sets were recorded. […]
NMR experiments were performed at 25 °C on a Bruker Avance III 500 MHz NMR spectrometer, equipped with a 5 mm SMART probe. […] The interaction of LPS with the peptides was monitored by 1D proton NMR spectra monitoring the line broadening effect LPS in the presence of increasing concentrations of peptides. […] 5 mM LPS alone and with increasing concentrations of peptides, with and without 0.1 mM MnCl2 as a paramagnetic quencher, were recorded with 1024 scans. […]
Passing the suspension through a mini extruder (Avanti Polar Lipids, Alabaster, AL) using stacked 100 nm pore size polycarbonate membrane filters 23 times generated large unilamellar vesicles (LUVs). […] Calcein leakage was monitored using Hitachi F-7000FL spectrophotometer (slit width: 2.5 nm). […]

Substance: Polymyxin B
- perturbation of plant model membrane mimic by reference AMPs: significant perturbation
